Measurements published in PubChem BioAssay AID2451 (National Center for Advancing Translational Sciences (NCATS), 2010).
Among all 290,000 compounds or so, about 2,100 (0.72%) were called active. Inconclusive means that the source gave no clear call. Such entries were picked first, then a sample of the others. Calls follow the shape of the dose curve; as a rule, active = well fitted inhibition curve with a large enough effect; inconclusive = small, poorly fitted or top-dose-only effect, or effect the other way; inactive = flat fitted curve, though single readings scatter. A potency beside an inconclusive call is a rough fit, not a confirmed value.

Biological target: Fructose-bisphosphate aldolase (Giardia intestinalis (strain ATCC 50803 / WB clone C6)) (UniProt A8B2U2)
Chain of UniProt A8B2U2 (A8B2U2 whole entry, looked up): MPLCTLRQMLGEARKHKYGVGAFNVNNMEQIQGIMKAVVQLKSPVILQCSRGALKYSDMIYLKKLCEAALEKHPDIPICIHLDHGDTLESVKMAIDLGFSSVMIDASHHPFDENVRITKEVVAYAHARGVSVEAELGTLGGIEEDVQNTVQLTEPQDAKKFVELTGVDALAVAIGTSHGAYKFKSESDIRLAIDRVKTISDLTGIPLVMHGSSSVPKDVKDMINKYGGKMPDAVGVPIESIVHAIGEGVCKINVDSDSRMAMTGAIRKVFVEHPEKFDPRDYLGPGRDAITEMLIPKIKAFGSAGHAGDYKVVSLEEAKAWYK
Assay: qHTS Assay for Inhibitors of Fructose-1,6-bisphosphate Aldolase from Giardia Lamblia; also: nearly all actives have a fitted effect of over 55% in size
Conditions: purified Giardia FBPA; activity, negative = inhibition: at 59.6 µM (top of the series) unless noted
Outline: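 40 nM FBPA preincubated 10 min at RT with compound (up to 57.5 uM final), then substrate plus GAPDH/TPI/NAD/arsenate coupling and diaphorase/resazurin added. Fluorescence read after 20 min at RT, 525/598 nm.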
% is scaled to controls: 0 for no effect and ±100 for the full control effect; potency is read from the fitted curve at half-maximal effect; tags tell the direction and shape of the fitted curve.

SMILES	activity, negative = inhibition	Potency
CN(Cc1cccnc1)Cc1cn[nH]c1-c1ccc(-c2ccccc2)cc1	inactive: 5.9%	
CCOC(=O)CSc1n[nH]c(=S)s1		inconclusive: 3.97 µM [inhibitor, full curve]
CCOC(=O)Cc1csc(NC(=O)c2ccc3ccccc3n2)n1		inconclusive: 2.24 µM [inhibitor, full curve]
Cc1ccc(S(=O)(=O)Nc2ccccc2/C=N/c2nc3ccccc3n2C)cc1		inconclusive: 15.8 µM [inhibitor, single point]
COc1ccccc1CNS(=O)(=O)c1c(C(=O)N2CCCC2)c(C)n(C)c1C	inactive: 0.557%	
Fc1cc(NCc2ccccc2)nc(NCc2ccccc2)n1	inactive: -5.94%	
Fc1ccc(-c2cc(C(F)(F)F)nc(-n3cc(Cl)cn3)n2)cc1	inactive: -4.5%	
CC(C)(C)NC(=O)C(c1ccc(O)cc1)N(C(=O)CCC(=O)Nc1ccccn1)c1ccc(F)cc1 (stereo unspecified)	inactive: 7.65%	
Cc1ccsc1CNCCc1ccc(F)cc1		inconclusive: 15.8 µM [inhibitor, partial curve]
c1cncc(-c2cccnc2)c1		inconclusive: 17.7 µM [inhibitor, single point]
N#CC(C#N)=Cc1ccc([N+](=O)[O-])c(O)c1		inconclusive: 17.7 µM [inhibitor, single point]
CN1CCc2c(sc(NC(=O)Cc3ccccc3)c2C#N)C1		inconclusive: 11.2 µM [inhibitor, partial curve]
CCOc1cc(OCC)cc(C(=O)O)c1	inactive: 13.4%	
Cc1ccccc1NC(=O)CN1CCOCC1		inconclusive: 25.1 µM [inhibitor, single point]
FC(F)(F)c1cccc(-c2nc3nc(Cl)c(Cl)nc3[nH]2)c1		inconclusive: 19.9 µM [inhibitor, partial curve]
CN(C)S(=O)(=O)c1cccc(C(=O)c2nccn2C)c1	inactive: -1.22%	
COc1cccc(/C=C/c2nc3c(cnn3-c3ccccc3)c(=O)[nH]2)c1	inactive: 4.4%	
COc1ccc(N2C(=O)[C@@H]3[C@H](C2=O)[C@H](C(=O)c2ccc(OC(C)=O)cc2)N2N=CC=C[C@@H]32)cc1		inconclusive: 19.9 µM [inhibitor, partial curve]
CCOC(=O)c1ccccc1NC(=O)CSc1nc2ccncc2[nH]1		inconclusive: 28.2 µM [inhibitor, partial curve]
Cc1ccc(/C=C/C(=O)NCCc2ccccc2)o1	inactive: -7.63%	
CN(Cc1ccccc1)C(=O)COC(=O)c1ccc(Cl)cc1N	inactive: 6.22%	
CCn1c(SCc2nc3ccccc3[nH]2)nnc1-c1cnccn1		inconclusive: 17.7 µM [inhibitor, single point]
Cc1c(Cl)cccc1NC(=O)CSc1nc2ncc(Cl)cc2[nH]1		inconclusive: 11.2 µM [inhibitor, partial curve]
CCCOc1ccc(-c2nnn(CC(=O)OCC)n2)cc1	inactive: 3.34%	
Cc1cccc(N(CC(=O)NCCSc2nc3ccccc3s2)S(=O)(=O)c2ccccc2)c1	inactive: 6.58%	
O=C(CSc1ncnc2nc[nH]c12)c1ccc(Cl)cc1		active: 14.1 µM

SMILES	activity, negative = inhibition	Potency
O=C(Nc1ccc(Br)cc1)c1cnc[nH]1	inactive: 2.03%	
Clc1ccccc1CNC1CN2CCC1CC2 (stereo unspecified)		inconclusive: 19.9 µM [inhibitor, partial curve]
COc1ccc(Cn2cccc(NC(=O)Nc3ccc(F)cc3)c2=O)cc1		inconclusive: 15.8 µM [inhibitor, partial curve]
OC1CCN(C(=S)Nc2ccc(Nc3ccccc3)cc2)CC1		inconclusive: 35.4 µM [inhibitor, single point]
CCN1/C(=C/C=C/C=C/c2sc3ccccc3[n+]2CC)Sc2ccccc21		inconclusive: 15.8 µM [inhibitor, single point]
S=C1NCCNC(=S)NCCOCCN1		inconclusive: 5 µM [inhibitor, partial curve]
Cc1c(C(=O)c2cccc(F)c2)c2ccccn2c1CCC#N		inconclusive: 14.1 µM [inhibitor, partial curve]
O=C(NC(=S)N1CCOCC1)c1cc2ccccc2o1		inconclusive: 12.6 µM [inhibitor, partial curve]
Cn1cccc1Cc1nnc(SCC(N)=O)n1CCc1ccccc1	inactive: 1.8%	
COc1ccc(/C=N/NC(=S)Nc2cccc(C(=O)O)c2)cc1	inactive: -18.2%	
CCOC(=O)C1C(C#N)=C(N)OC(C)=C1c1ccncc1 (stereo unspecified)		inconclusive: 31.6 µM [inhibitor, single point]
CCN1C/C(=C/c2cccs2)c2nc3ccccc3c(C(=O)O)c2C1		inconclusive: 17.7 µM [inhibitor, partial curve]
C=CCC(C)(O)c1cccc(Br)c1 (stereo unspecified)	inactive: 5.34%	
COc1ccccc1-c1nc2c3ccccc3nc(=S)n2[nH]1		inconclusive: 2.82 µM [inhibitor, full curve]
Cc1c(C(=O)O)cccc1-c1ccc(/C=C2\SC(=O)NC2=O)o1		inconclusive: 31.6 µM [inhibitor, single point]
CC(/C=N/NC(=O)Cn1cnc2c1c(=O)n(C)c(=O)n2C)=C\c1ccco1		inconclusive: 17.7 µM [inhibitor, partial curve]
CCN1CCN(CCC(=O)Nc2ccc(C)cc2)CC1		inconclusive: 20 µM [inhibitor, partial curve]
CC(=O)n1cc(C=C2C(=O)NC(=O)NC2=O)c2ccccc21		inconclusive: 28.2 µM [inhibitor, partial curve]
CCc1ccc(NC(=O)NCCN2CCc3ccccc3C2)cc1		inconclusive: 19.9 µM [inhibitor, single point]
COCC(=O)N/N=C/c1c(C)[nH]n(-c2ccccc2)c1=O		active: 7.06 µM
Oc1ccc(/C=N/N2CCOCC2)c(O)c1O		active: 5.61 µM
COc1ccc(-n2c(=O)[nH]cc(C(=O)Nc3ccccc3)c2=O)cc1	inactive: 1.12%	
Oc1c(Br)cc(Br)cc1/C=N/NC(=S)N[C@H]1CC2C=CC1C2 (stereo partly specified)		inconclusive: 3.54 µM [activator, partial curve]
Cc1cccc(C)c1OCC(=O)Nc1cccc(NC(=O)c2ccco2)c1	inactive: -2.09%	
Clc1ccc(Cl)c2sc(N3CCCC3)nc12	inactive: 12.6%	
N#CCCN1CCCN(CCC#N)CCN(CCC#N)CCCN(CCC#N)CC1		inconclusive: 20 µM [inhibitor, single point]

SMILES	activity, negative = inhibition	Potency
O=C(NC(c1ccccc1)c1cc(Cl)c2cccnc2c1O)c1cccnc1 (stereo unspecified)		inconclusive: 2.51 µM [activator, partial curve]
CCOC(=O)C(=O)Cc1nc2ccccc2s1		inconclusive: 31.5 µM [inhibitor, single point]
Cc1cc(OCCCN2CCN(Cc3ccccc3)CC2)ccc1[N+](=O)[O-]		inconclusive: 15.8 µM [inhibitor, partial curve]
C=CCN1C=C2C(=O)C(C)(OC(=O)CC)C(=O)C=C2C=C1CCCC (stereo unspecified)		inconclusive: 0.397 µM [inhibitor, full curve]
O=C(CCc1c[nH]c2ccccc12)N1CCN(c2ccc(O)cc2)CC1		inconclusive: 35.4 µM [inhibitor, single point]
COc1ccc(-c2coc3ccc(OC4OC(COC(C)=O)C(OC(C)=O)C(OC(C)=O)C4OC(C)=O)c(OC(C)=O)c3c2=O)cc1 (stereo unspecified)	inactive: -0.0012%	
O=c1[nH]c2ccccc2n2c(-c3ccccc3)nnc12		active: 0.998 µM
O=C(C1CCCN1C(=O)c1cccs1)N1CCc2ccccc21 (stereo unspecified)		inconclusive: 15.8 µM [inhibitor, partial curve]
CCCCn1c(-c2ccc(Cl)cc2)nc2c(=O)n(C)c(=O)[nH]c21		inconclusive: 4.46 µM [inhibitor, partial curve]
Nc1nc(=S)n(-c2ccccc2)[nH]1		active: 7.06 µM
COc1cc(OC)c(NC(=O)/C=C/C(=O)O)cc1Cl	inactive: -27.6%	
C=CCc1ccc(OCCOCCN(C)C)c(OC)c1		inconclusive: 15.8 µM [inhibitor, single point]
COc1cnc(-c2ccccn2)nc1NC(C)C		inconclusive: 7.06 µM [inhibitor, full curve]
O=C1CC(c2ccc(O)c(O)c2)Oc2c1ccc(O)c2O (stereo unspecified)		inconclusive: 15.8 µM [inhibitor, single point]
CC(=O)Oc1ccc2occ(/C=N/c3cc(=O)[nH]c(=S)[nH]3)c(=O)c2c1		inconclusive: 9.98 µM [inhibitor, partial curve]
Nc1nnc(Cc2ccccc2F)s1	inactive: 1.54%	
CCN(CC)S(=O)(=O)c1ccc(Cl)c(NC(=O)COC(=O)c2ccc([N+](=O)[O-])o2)c1		inconclusive: 19.9 µM [inhibitor, partial curve]
O=C1CCCC(=O)C1CS(=O)(=O)c1ccccc1		inconclusive: 17.7 µM [inhibitor, single point]
CN(C)Cc1cc(O)c(CN(C)C)cc1O		inconclusive: 35.4 µM [inhibitor, single point]
CCOC(=O)c1ccc(-n2c(N)c(C(=O)NCC3CCCO3)sc2=S)cc1 (stereo unspecified)		inconclusive: 17.7 µM [inhibitor, single point]
COCCNC(=S)N/N=C(\C)c1ccccc1F		inconclusive: 19.9 µM [inhibitor, single point]
N[C@H](Cc1cc(I)c(Oc2cc(I)c(O)c(I)c2)c(I)c1)C(=O)O		inconclusive: 19.9 µM [inhibitor, single point]
O=C1C(=Cc2ccco2)C(=O)c2ccccc21	inactive: -7.19%	
CCCC(=O)Nc1ccc2c(c1)nc1n2CCN(CCOC)C1		inconclusive: 31.6 µM [inhibitor, partial curve]
